# Results as given in the supplement of paper PMC12217912.
# The list shows a part of the results. The full chains were built here from the parent and the listed change. Values near 0.05 are background.
# B1: TEV protease; numbered along this chain (parent)
# chain: MGESLFKGPRDYNPISSSICHLTNESDGHTTSLYGIGFGPFIITNKHLFRRNNGTLVVQSLHGVFKVKDTTTLQQHLVDGRDMIIIRMPKDFPPFPQKLKFREPQREERICLVTTNFQTKSMSSMVSDTSCTFPSGDGIFWKHWIQTKDGQCGSPLVSTRDGFIVGIHSASNFTNTNNYFTSVPKNFMELLTNQEAQQWVSGWRLNADSVLWGGHKVFMVKPEEPFQPVKEATQL
# Variants of: B1
# Experiment: raw area under fraction-flipped curve 0-4 h after induction (AUC4h, not background-subtracted), DNA-recorder readout of cleavage of the substrate (dimensionless); higher = more cleavage of the substrate by the protease variant
# Details: temperature: 34 °C; time window: 0-4 h after rhamnose induction
# Method: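 In vivo DNA recorder in E. coli TOP10(DE3) ΔrhaA at 34 °C. Each TEVp single-site mutant (parent TEVp 0) is paired with a single-site variant of the 7-mer TEVs (canonical ENLYFQ|S). The substrate sits between flexible linkers in a Bxb1-sfGFP-TEVs-SsrA fusion, so cleavage stabilises Bxb1 and speeds flipping of a recombination array, read by NGS. The value is the raw area under the fraction-flipped curve over 0-4 h after rhamnose induction (AUC4h), with ≥20 reads per time point. It is not background-subtracted; inactive controls average about 0.047.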
# 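Further: Bxb1 expression induced with 0.2% (w/v) L-rhamnose at OD600 near 0.5, cultures sampled hourly, flipped fraction per protease–substrate barcode pair counted by paired-end Illumina sequencing.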
Variant,area with substrate ENLYAQS,area with substrate ENLYDQS,area with substrate ENLYEQS,area with substrate ENLYGQS,area with substrate ENLYHQS,area with substrate ENLYIQS,area with substrate ENLYKQS,area with substrate ENLYLQS,area with substrate ENLYMQS,area with substrate ENLYPQS,area with substrate ENLYQQS,area with substrate ENLYRQS,area with substrate ENLYSQS,area with substrate ENLYWQS,area with substrate ENLYYQS,area with substrate ENLYCQS,area with substrate ENLYNQS,area with substrate ENLYTQS,area with substrate ENLYVQS
V217H,0.0111,0.0647,0.0907,0.0625,0.0583,0.0482,0.0588,0.0409,0.0849,0.0661,0.056,0.0578,0.0615,0.0485,0.0544,,,,
V217N,0.0453,0.0568,,0.0538,0.0589,0.0639,0.0664,0.0593,0.0504,0.0545,0.0714,0.0648,0.058,,0.0603,0.0699,0.0807,0.0511,0.05
T115C,0.0867,,0.0629,0.0727,0.0697,0.144,0.0199,0.0883,0.124,0.103,,0.0691,0.0849,0.0747,0.0851,,0.0639,,0.134
V157N,0.0411,0.0507,0.0502,0.0591,0.0498,0.0558,0.0493,,0.0587,0.0507,0.0709,,0.0493,0.0553,0.0574,0.0682,0.0553,0.064,
D91C,0.107,,,0.0246,0.0551,,0.0397,,0.0951,,0.0934,0.108,0.0945,,,0.0902,0.0657,,0.106
M122P,0.064,0.0669,0.0694,0.064,0.0663,0.118,0.0604,0.0809,0.0935,0.0813,0.0753,0.0893,0.0749,0.0863,,,0.0756,0.0799,0.118
L48H,0.0617,0.0591,0.0452,0.0595,0.0622,0.0697,0.0582,,0.0578,0.0543,0.0516,,0.0544,,,,0.0464,0.062,
V210K,0.0676,0.0643,0.0715,0.0539,0.0597,0.116,0.0662,,0.0676,0.0632,0.062,0.0563,0.0732,,0.0794,,0.0679,,
V210D,0.0803,,0.0733,0.0628,0.0596,0.0756,0.0161,0.06,0.0637,,0.0647,0.0575,0.0408,0.0733,0.0709,0.0734,0.0547,,0.078
I139Q,0.0757,0.0563,0.0676,0.0625,0.0449,0.0992,,0.0652,0.0771,,,0.0372,0.0615,0.0681,,,,,0.0821
I139N,0.0575,0.0546,0.0354,0.0652,0.0655,0.0779,,0.0596,0.0313,0.0624,0.0889,0.0613,,0.0695,,0.0747,0.0729,,0.114
E223F,0.0665,0.066,0.0549,,0.059,,0.0618,,0.0678,0.0687,,,0.0502,0.0681,0.0675,,0.0545,,
T31C,0.0824,0.0639,0.0726,0.0726,0.0645,0.131,0.0197,,0.0662,0.0612,0.0597,0.0701,,0.0924,0.067,,0.0727,0.0811,0.132
H47R,0.0665,0.0578,0.0671,,0.0883,0.0616,0.0466,,0.0557,0.0744,0.0663,0.0594,0.112,0.0633,0.219,,0.0732,0.0439,0.0536
N178I,0.059,0.0673,0.0723,,,,0.0522,,,0.0593,,,0.0662,,,0.0707,,,
F101Q,0.0589,,0.0518,0.0419,0.0547,0.0523,0.0456,,,,0.0391,0.045,,,0.0265,0.05,0.0525,,
D149S,0.0795,0.0471,0.0697,0.0905,0.0806,0.099,0.0585,,0.0937,0.0759,0.0622,,0.0876,,0.0708,,,,
T233D,0.0828,0.0614,0.0772,0.0674,0.065,,0.0796,0.102,0.118,,0.0823,,0.0855,0.0822,,,0.0683,,0.109
Q151H,0.0761,0.0652,0.0642,,,0.054,0.0645,,0.0664,0.0872,0.0662,0.0685,0.0712,0.0794,,,0.0609,0.0699,0.0972
E231M,0.0498,0.0708,0.0636,,0.0609,0.0996,0.0435,,0.0894,0.0737,,0.066,,0.0835,,,0.0792,,0.119
S18P,0.0855,0.0407,0.0518,0.0444,0.0467,0.0853,0.0488,0.056,,0.0611,,0.0516,0.0648,0.0567,0.0742,,0.0724,0.0829,0.079
P155E,0.0765,,0.0759,0.0411,0.0536,,0.0494,,,0.0635,0.0584,0.0698,0.065,,,0.048,0.0578,0.0586,
P155M,0.0724,,0.0494,0.0567,0.0536,0.0901,,,0.066,0.0698,0.0587,0.047,,,,0.0629,0.0473,,0.0769
H21S,0.0836,0.0584,0.0608,0.0653,0.0616,0.1,0.0596,,0.0693,0.0638,0.0653,0.0627,0.0855,0.0648,,,0.0656,,0.128
P89E,0.0615,,0.104,0.06,0.0569,0.105,0.0582,0.0942,0.0758,0.062,0.0718,0.06,0.0755,0.0598,0.0625,,0.0701,0.0711,0.101
